Measured values as given in the supplement of paper PMC4967469.
By IC50 is meant the dose at which the fit gives 50% viability; where the fit passes the top or lowest dose, that dose stands as a limit. AUC sums up the same curve from the lowest dose to the 256-fold higher top dose: 1 means no effect, lower means more sensitive. For some of these results: A top dose marked as inferred was derived from the fitted curves, not read from the paper.

Assays:
Experiment in all cases: Viability of human cancer cell lines after 72 h of drug (GDSC screen)
Axitinib = compound: CNC(=O)c1ccccc1Sc1ccc2c(/C=C/c3ccccn3)n[nH]c2c1 [Axitinib]; conditions: top dose 2 µM
Procedure: (§1)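 Human cancer cell lines in 384-well plates, medium with 10% serum, drug for 72 h over a 256-fold dose range (nine 2-fold or five 4-fold steps up to the top dose). Adherent lines were fixed and stained with the nucleic acid dye Syto60, suspension lines read with resazurin; signal relative to control wells, capped at 0 and 100%. One two-parameter sigmoid per drug and line, fitted in a mixed model over all curves with the slope shared within a line.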

Vorinostat = compound: O=C(CCCCCCC(=O)Nc1ccccc1)NO [Vorinostat]; conditions: top dose 10 µM
Procedure: as §1

SN-38 = compound: CCc1c2c(nc3ccc(O)cc13)-c1cc3c(c(=O)n1C2)COC(=O)[C@]3(O)CC [SN-38]; conditions: top dose 0.05 µM; top dose inferred
Procedure: as §1

Dabrafenib = compound: CC(C)(C)c1nc(-c2cccc(NS(=O)(=O)c3c(F)cccc3F)c2F)c(-c2ccnc(N)n2)s1 [Dabrafenib]; conditions: top dose 10 µM
Procedure: as §1

Methotrexate = compound: CN(Cc1cnc2nc(N)nc(N)c2n1)c1ccc(C(=O)N[C@@H](CCC(=O)O)C(=O)O)cc1 [Methotrexate]; conditions: top dose 0.2 µM
Procedure: as §1

Cell Line | AUC (Axitinib) | IC50 (Axitinib) [µM] | AUC (Vorinostat) | IC50 (Vorinostat) [µM] | AUC (SN-38) | IC50 (SN-38) [µM] | AUC (Dabrafenib) | IC50 (Dabrafenib) [µM] | AUC (Methotrexate) | IC50 (Methotrexate) [µM]
CAL-51 (breast, adherent) | 0.944 | > 2 | 0.715 | 2.3 | 0.445 | 0.00227 | 0.833 | 5.3 | 0.972 | > 0.2
NCI-H2135 (non-small cell lung carcinoma, adherent) | 0.99 | > 2 | 0.989 | > 10 | 0.99 | > 0.05 | 0.99 | > 10 | 0.991 | > 0.2
D-247MG (glioma, adherent) | 0.943 | > 2 | 0.862 | > 10 | 0.804 | 0.0368 | 0.938 | > 10 | 0.975 | > 0.2
MES-SA (uterus, adherent) | 0.92 | > 2 | 0.755 | 2.94 | 0.696 | 0.0101 | 0.942 | > 10 | 0.806 | 0.0844
WM1552C (melanoma, adherent) | 0.983 | > 2 | 0.878 | > 10 | 0.963 | > 0.05 | 0.833 | 6.5 | 0.872 | 0.193
NCI-H211 (small cell lung carcinoma, adherent) | 0.918 | > 2 | 0.584 | 1.05 | 0.77 | 0.0184 | 0.982 | > 10 | 0.71 | 0.0481
TE-4 (oesophagus, adherent) | 0.946 | > 2 | 0.512 | 0.673 | 0.758 | 0.0172 | 0.952 | > 10 | 0.937 | > 0.2
COR-L88 (small cell lung carcinoma, adherent) | 0.967 | > 2 | 0.592 | 1.18 | 0.948 | > 0.05 | 0.983 | > 10 | 0.973 | > 0.2
NCI-H1781 (lung adenocarcinoma, adherent) | 0.944 | > 2 | 0.927 | > 10 | 0.622 | 0.00675 | 0.983 | > 10 | 0.989 | > 0.2
DIFI (large intestine, adherent) | 0.915 | > 2 | 0.554 | 0.883 | 0.916 | > 0.05 | 0.962 | > 10 | 0.983 | > 0.2
MFH-ino (soft tissue, adherent) | 0.899 | > 2 | 0.668 | 2.01 | 0.416 | 0.00177 | 0.972 | > 10 | 0.981 | > 0.2
PA-TU-8902 (pancreas, adherent) | 0.983 | > 2 | 0.788 | 5.2 | 0.525 | 0.00371 | 0.933 | > 10 | 0.976 | > 0.2
LU-65 (large cell lung carcinoma, suspension) | 0.987 | > 2 | 0.986 | > 10 | 0.977 | > 0.05 | 0.981 | > 10 | 0.987 | > 0.2
EW-11 (Ewing sarcoma, adherent) | 0.879 | > 2 | 0.651 | 1.86 | 0.939 | > 0.05 | 0.844 | > 10 | 0.893 | > 0.2
BICR22 (head and neck, adherent) | 0.885 | > 2 | 0.546 | 0.849 | 0.44 | 0.00209 | 0.962 | > 10 | 0.958 | > 0.2
LS-123 (large intestine, adherent) | 0.981 | > 2 | 0.778 | 5.51 | 0.931 | > 0.05 | 0.958 | > 10 | 0.974 | > 0.2
JHH-2 (liver, adherent) | 0.986 | > 2 | 0.812 | 5.88 | 0.738 | 0.0159 | 0.964 | > 10 | 0.879 | > 0.2
KS-1 (glioma, adherent) | 0.942 | > 2 | 0.83 | 8.52 | 0.74 | 0.0183 | 0.977 | > 10 | 0.977 | > 0.2
SK-PN-DW (Ewing sarcoma, adherent) | 0.877 | > 2 | 0.579 | 1.04 | 0.46 | 0.00241 | 0.962 | > 10 | 0.971 | > 0.2
RERF-LC-KJ (lung adenocarcinoma, adherent) | 0.955 | > 2 | 0.795 | 4.8 | 0.968 | > 0.05 | 0.983 | > 10 | 0.95 | > 0.2
ESO51 (oesophagus, semi-adherent) | 0.97 | > 2 | 0.531 | 0.786 | 0.907 | > 0.05 | 0.965 | > 10 | 0.875 | > 0.2
DOK (head and neck, adherent) | 0.881 | > 2 | 0.642 | 1.89 | 0.705 | 0.0161 | 0.85 | > 10 | 0.904 | > 0.2
PCI-6A (head and neck, adherent) | 0.835 | 1.28 | 0.462 | 0.494 | 0.776 | 0.0196 | 0.984 | > 10 | 0.814 | 0.107
OE21 (oesophagus, adherent) | 0.86 | > 2 | 0.583 | 1.15 | 0.802 | 0.0361 | 0.951 | > 10 | 0.887 | > 0.2
ES7 (Ewing sarcoma, adherent) | 0.822 | 1.21 | 0.662 | 1.79 | 0.227 | 0.000487 | 0.81 | 5.44 | 0.847 | 0.153
